Data: patent publication US20140093592A1, “[…] THE TREATMENT OF TREATMENT-[…] TREATMENT-RESISTANT DEPRESSION” (Janssen Pharmaceutica NV, priority 2012, published 2014)

Experiments:
[1] = system: adult subjects with treatment-resistant depression (TRD); test: Phase 2a clinical study of i.v. esketamine in TRD: MADRS total score
[2] = system: adult subjects with treatment-resistant depression (TRD); test: Brief Psychiatric Rating Scale (BPRS) total score, same clinical study

SMILES: CN[C@]1(c2ccccc2Cl)CCCCC1=O.Cl [Esketamine, (S)-2-(2-chlorophenyl)-2-(methylamino)cyclohexanone hydrochloride]
- MADRS total score, Mean (SE) ([1]; 0.20 mg/kg, Day 1 (Predose)): 33.11 (1.184)
- MADRS total score, Mean (SE) ([1]; 0.20 mg/kg, Day 4 (2 Hour)): 11.00 (2.734)
- MADRS total score, Mean (SE) ([1]; 0.20 mg/kg, Day 4 (4 Hour)): 11.00 (3.082)
- MADRS total score, Mean (SE) ([1]; 0.20 mg/kg, Day 4 (Predose)): 18.89 (3.470)
- MADRS total score, Mean (SE) ([1]; 0.20 mg/kg, Day 5): 11.67 (2.814)
- MADRS total score, Mean (SE) ([1]; 0.20 mg/kg, Day 6): 11.33 (3.559)
- MADRS total score, Mean (SE) ([1]; 0.20 mg/kg, Day 7): 11.67 (4.295)
- MADRS total score, Mean (SE) ([1]; 0.40 mg/kg column (most subjects 0.4 mg/kg, one 0.8, two 0.2), Day 10): 11.66 (2.085)
- MADRS total score, Mean (SE) ([1]; 0.40 mg/kg column (most subjects 0.4 mg/kg, one 0.8, two 0.2), Day 14): 11.24 (1.900)
- MADRS total score, Mean (SE) ([1]; 0.40 mg/kg column (most subjects 0.4 mg/kg, one 0.8, two 0.2), Day 17): 11.74 (1.985)
- MADRS total score, Mean (SE) ([1]; 0.40 mg/kg column (most subjects 0.4 mg/kg, one 0.8, two 0.2), Day 21): 13.14 (2.000)
- MADRS total score, Mean (SE) ([1]; 0.40 mg/kg column (most subjects 0.4 mg/kg, one 0.8, two 0.2), Day 28): 11.50 (2.217)
- MADRS total score, Mean (SE) ([1]; 0.40 mg/kg column (most subjects 0.4 mg/kg, one 0.8, two 0.2), Day 35): 13.59 (2.547)
- MADRS total score, Mean (SE) ([1]; 0.40 mg/kg, Day 1 (Predose)): 33.73 (1.753)
- MADRS total score, Mean (SE) ([1]; 0.40 mg/kg, Day 4 (2 Hour)): 16.25 (2.151)
- MADRS total score, Mean (SE) ([1]; 0.40 mg/kg, Day 4 (4 Hour)): 15.75 (2.161)
- MADRS total score, Mean (SE) ([1]; 0.40 mg/kg, Day 4 (Predose)): 19.64 (3.834)
- MADRS total score, Mean (SE) ([1]; 0.40 mg/kg, Day 5): 14.45 (2.261)
- MADRS total score, Mean (SE) ([1]; 0.40 mg/kg, Day 6): 12.68 (2.151)
- MADRS total score, Mean (SE) ([1]; 0.40 mg/kg, Day 7): 14.75 (2.533)
- BPRS total score, Mean (SE) ([2]; 0.20 mg/kg, Day 1 (2 Hour)): 0.22 (0.222)
- BPRS total score, Mean (SE) ([2]; 0.20 mg/kg, Day 1 (4 Hour)): 0.00 (0.000)
- BPRS total score, Mean (SE) ([2]; 0.20 mg/kg, Day 1 (15 Min.)): 1.11 (0.611)
- BPRS total score, Mean (SE) ([2]; 0.20 mg/kg, Day 1 (30 Min.)): 1.67 (0.799)
- BPRS total score, Mean (SE) ([2]; 0.20 mg/kg, Day 1 (40 Min.)): 1.67 (0.957)
- BPRS total score, Mean (SE) ([2]; 0.20 mg/kg, Day 1 (Predose)): 0.11 (0.111)
- BPRS total score, Mean (SE) ([2]; 0.20 mg/kg, Day 2): 0.00 (0.000)
- BPRS total score, Mean (SE) ([2]; 0.20 mg/kg, Day 4 (2 Hour)): 0.00 (0.000)
- BPRS total score, Mean (SE) ([2]; 0.20 mg/kg, Day 4 (4 Hour)): 0.00 (0.000)
- BPRS total score, Mean (SE) ([2]; 0.20 mg/kg, Day 4 (15 Min.)): 0.22 (0.222)
- BPRS total score, Mean (SE) ([2]; 0.20 mg/kg, Day 4 (30 Min.)): 0.89 (0.588)
- BPRS total score, Mean (SE) ([2]; 0.20 mg/kg, Day 4 (40 Min.)): 0.89 (0.588)
- BPRS total score, Mean (SE) ([2]; 0.20 mg/kg, Day 4 (Predose)): 0.00 (0.000)
- BPRS total score, Mean (SE) ([2]; 0.20 mg/kg, Day 5): 0.00 (0.000)
- BPRS total score, Mean (SE) ([2]; 0.40 mg/kg, Day 1 (2 Hour)): 0.00 (0.000)
